# Measurements taken from PubChem BioAssay AID1508642 (National Center for Advancing Translational Sciences (NCATS), 2021).
# About 200 (0.47%) of roughly 43,000 compounds were called active. Roughly 12% stayed inconclusive and do not appear here. Calls follow the shape of the dose curve; as a rule, active = well fitted cell-killing curve with a large enough effect; inconclusive = small, poorly fitted or top-dose-only effect, or effect the other way; inactive = flat fitted curve, though single readings scatter. Some of the results follow.
# Assay: Cell viability qHTS assay in S16 Pmp22-F2sN cells; also: nearly all actives have a fitted effect of over 65% in size
# Details: S16 Pmp22-F2sN Schwann cells (luciferase reporters placed in the Pmp22 gene) viability, CellTiter-Glo, 24 h; series mostly up to 57.5 µM; activity change, negative = cytotoxicity: at the top concentration
# How it was run: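 CellTiter-Glo counter-screen, qHTS, 1536-well. Cells: S16(c9) Pmp22-F2sN, 500-1,000/well in DMEM + 10% FBS. Cpd 23 nL pin transfer, 24 h, 37C/5% CO2. Read: luminescence, CCD imager.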
# % is scaled to controls: 0 for no effect and ±100 for the full control effect.
row,Compound,"activity change, negative = cytotoxicity"
1,COc1ccc(NC(=O)CSc2nnc(-c3ccc(OC)cc3)s2)cc1,inactive: -11.7%
2,COc1cccc(C(c2sc3nc(-c4ccco4)nn3c2O)N2CCOCC2)c1 (stereo not given),inactive: -5.37%
3,Cc1ccc(Nc2nc3ccc(C)cc3nc2-n2nc(C)cc2C)c(C)c1,inactive: 8.07%
4,Cc1c(C(=O)Nc2cccc(F)c2)oc2c1-c1nn(Cc3c(F)cccc3Cl)cc1CC2,inactive: -3.49%
5,COc1cc(C(CC(=O)Nc2ccc(Br)cn2)N2Cc3ccccc3C2=O)cc(OC)c1OC (stereo not given),inactive: 0.921%
6,Cc1nn(CC(=O)NCc2cccc(Br)c2)c(=O)c2c1sc1ccccc12,inactive: -0.0621%
7,Cc1cc(C)c(S(=O)(=O)NCCc2cc3cc(C)c(C)cc3[nH]c2=O)c(C)c1,inactive: 9.76%
8,O=S(=O)(NCCc1nnc2ccc(SCc3ccc(C(F)(F)F)cc3)nn12)c1ccccc1,inactive: -14.1%
9,CCOCCc1nn2c(=O)cc(COC(=O)c3ccccc3Br)nc2s1,inactive: 20.6%
10,O=C(NCCc1csc(-c2ccc(C(F)(F)F)cc2)n1)c1ccccc1Cl,inactive: -3.65%
11,N#C/C(=C\c1ccc(-c2ccc(Br)cc2)o1)C(=O)Nc1ccccc1O,inactive: 9.91%
12,Cc1ccc(-n2ncc3c(N4CCN(Cc5ccccc5)CC4)ncnc32)cc1C,inactive: -2.63%
13,Cc1oc(-c2ccccc2F)nc1Cn1c(SCc2cccc(Cl)c2)nc2ccncc21,inactive: -16.2%
14,CCCn1c(=N)c(C(=O)NCc2ccccc2)cc2c(=O)n3cccc(C)c3nc21,inactive: 5.9%
15,Cc1ccc(CNC(=O)C(=O)NCC(c2cccs2)S(=O)(=O)c2ccccc2)cc1 (stereo not given),inactive: 1.55%
16,Cc1ccc(C)c(N2CCN(c3nc4ccccc4n4nnnc34)CC2)c1,inactive: 17.5%
17,O=C(COc1ccc(F)cc1)NCc1ccc2c(c1)CCN2C(=O)c1ccc(F)cc1,inactive: -15.7%
18,COc1ccc(CCNC(=O)c2c3c(nc4ccccc24)C(=O)N(C2CCCCC2)C3)cc1OC,inactive: 0.926%
19,O=C(Nc1ccc(F)c(Cl)c1)C1CCN(c2ncccn2)CC1,inactive: -22.9%
20,Oc1c(C(c2cccc(Cl)c2)N2CCOCC2)sc2nc(-c3ccco3)nn12 (stereo not given),inactive: 4.76%

row,Compound,"activity change, negative = cytotoxicity"
1,CCN1c2ccccc2-c2nc(SCC(=O)Nc3cc(C)c(Cl)cc3OC)ncc2S1(=O)=O,inactive: 2.86%
2,COC(=O)c1ccccc1NC(=O)C1CCCN(C(=O)c2cnn(-c3ccc(F)cc3)c2-n2cccc2)C1 (stereo not given),inactive: -5.92%
3,COCCn1c(=O)[nH]c2cc(C(=O)N3CCN(c4ccc(F)cc4)CC3)ccc2c1=O,inactive: 4.94%
4,Cc1cc(Br)cc(C)c1OCC(=O)Nc1ccc(S(=O)(=O)Nc2ncccn2)cc1,inactive: -16.2%
5,Cc1cc(-n2c(C)nc3ccccc3c2=O)ccc1NC(=O)c1cccc([N+](=O)[O-])c1C,inactive: -5.9%
6,Cc1cccc(OCC(=O)Nc2ccc(S(=O)(=O)N(Cc3ccccc3)c3ccccc3)cc2)c1,inactive: 1.53%
7,CCOc1cccc(C2Oc3nc(SC)nnc3-c3ccccc3N2C(C)=O)c1OC (stereo not given),inactive: -20.4%
8,Cc1cc(C)cc(NC(=O)Cn2c(C)cc(C)c(C#N)c2=O)c1,inactive: -7.04%
9,O=C(CSc1nc2ccccc2n1Cc1cccc(C(F)(F)F)c1)NCc1ccccc1,inactive: 1.48%
10,O=C(O)c1ccc(CSc2nc3cccnc3n2Cc2cccc(F)c2)cc1,inactive: -0.923%
11,CC(=O)Nc1ccc(NC(=O)c2c(-c3ccccc3)noc2C)cc1,inactive: -7.56%
12,CC(=O)N1CCc2cc(CNS(=O)(=O)c3ccccc3C(F)(F)F)ccc21,inactive: 2.28%
13,Cc1nn(CC(=O)NCc2ccco2)c(=O)c2nn(-c3ccccc3)c(C)c12,inactive: -0.296%
14,O=C(CSc1nc2c([nH]c3ccccc32)c(=O)n1-c1ccc(F)cc1)Nc1ccc2c(c1)OCO2,inactive: 5.27%
15,Cc1ccc(S(=O)(=O)C(CNC(=O)C(=O)NCCc2ccc(F)cc2)c2cccs2)cc1 (stereo not given),inactive: 4.9%
16,COc1cc(NC(=O)CSc2ccc(-c3sc(C)nc3C)nn2)cc(OC)c1,inactive: -18.1%
17,COc1ccc(Cl)cc1NC(=O)c1oc2ccc(S(=O)(=O)N3CCCCC3)cc2c1C,inactive: 3.93%
18,COc1ccc(N2CCN(C(=O)c3ccc(CS(=O)c4cccc(C)c4)o3)CC2)cc1 (stereo not given),inactive: -7.19%
19,Nc1ncc(S(=O)(=O)N2CCN(c3ccccc3)CC2)cn1,inactive: 4.04%
20,COC(=O)CC1Oc2ccc(Cl)cc2-n2cc(-c3ccc(C)cc3)nc21 (stereo not given),inactive: 22.1%

row,Compound,"activity change, negative = cytotoxicity"
1,Cc1ccc2oc(=O)c(-c3nc(-c4cccs4)no3)cc2c1,inactive: 1.62%
2,CCN(c1ccc(C)cc1C)S(=O)(=O)c1nnc(NC(=O)c2ccc(F)cc2)s1,inactive: -16.6%
3,CCN(Cc1ccccc1)C(=O)CN1C(=O)COc2ccc(S(=O)(=O)N3CCOCC3)cc21,inactive: -0.619%
4,COc1ccc(OC)c(NC(=O)CN(c2ccccc2OC)S(=O)(=O)c2ccc(C)cc2)c1,inactive: 5.58%
5,O=C(Nc1cccc(C(=O)OCc2cc(=O)n3ccsc3n2)c1)c1ccc(F)cc1,inactive: -20.9%
6,Cc1csc2nc(COC(=O)c3ccc(NC(=O)c4ccccc4Br)cc3)cc(=O)n12,inactive: -0.0903%
7,CCOCCCNC(=O)CCC(=O)NNc1nc2ccccc2c2nc(C)nn12,inactive: 10.3%
8,Cc1nc2nc(SCC(=O)NCCc3ccc(Cl)cc3)nn2c(C)c1Cc1c(F)cccc1Cl,inactive: -7.37%
9,Cc1ccc(NC(=O)C2CCCN2S(=O)(=O)c2ccc3c(c2)n(C)c(=O)c(=O)n3C)cc1 (stereo not given),inactive: -0.693%
10,Cc1nn(CCC(=O)Nc2cccc(C#N)c2)c(C)c1S(=O)(=O)N1CCC(C)CC1,inactive: -0.733%
11,COc1ccc(-n2cnc3cc(C(=O)NCCC4=CCCCC4)ccc32)cc1,inactive: -25.3%
12,COC(=O)c1ccccc1NC(=O)Cc1nc(-c2ccc(OC)cc2)no1,inactive: 2.31%
13,Cc1ccc(CCNC(=O)c2ccc(CS(=O)(=O)Cc3ccc(Cl)cc3)o2)cc1,inactive: 0.0201%
14,CN(CC(=O)NCc1ccc(Cl)cc1)S(=O)(=O)c1ccc2c(c1)c(=O)n(C)c(=O)n2C,inactive: -14%
15,CCOC(=O)c1scc(-c2ccc(C)cc2)c1S(=O)(=O)Nc1cc(C)ccc1C,inactive: 7.4%
16,COc1cc(Cl)c(C)cc1NC(=O)Cn1cnc2sc(C)c(S(=O)(=O)N3CCCCC3)c2c1=O,inactive: -18.2%
17,Cc1noc(NS(=O)(=O)c2ccc(NC(=O)COc3ccccc3Br)cc2)c1C,inactive: -2.44%
18,CCOc1ccccc1NC(=O)Nc1ccccc1OCc1cc(=O)n2ccccc2n1,inactive: 11.7%
19,COc1cccc(-c2nnc(SCC(=O)N3CCc4ccccc43)o2)c1,inactive: 1.59%
20,CCS(=O)(=O)c1c(S(=O)(=O)CC)c2cc(C(C)(C)C)ccn2c1C(=O)c1ccc(F)cc1,inactive: 3.27%
